No constants are given. Whether binding was seen depends on the method and setting. Some entries that bind do so weakly or less than the wild type. For some of these results: Sequences can lack the tags named with a protein.
Legend:
[1] = target: DCC (cDNA transfected into COS-7 cells for the AP binding assay) (human) (UniProt P43146); experiment: alkaline phosphatase (AP) fusion protein binding to transfected cells; COS-7 cells transfected with DCC or NgR; 20 nM AP, CBLN4-AP or Nogo 66-AP from conditioned media, 90 min, room temperature, binding buffer with 2 µg/ml heparin; NBT/BCIP development
[2] = target: T1, Nogo receptor (NgR) (UniProt Q9BZR6); experiment: as above
T1 sequence: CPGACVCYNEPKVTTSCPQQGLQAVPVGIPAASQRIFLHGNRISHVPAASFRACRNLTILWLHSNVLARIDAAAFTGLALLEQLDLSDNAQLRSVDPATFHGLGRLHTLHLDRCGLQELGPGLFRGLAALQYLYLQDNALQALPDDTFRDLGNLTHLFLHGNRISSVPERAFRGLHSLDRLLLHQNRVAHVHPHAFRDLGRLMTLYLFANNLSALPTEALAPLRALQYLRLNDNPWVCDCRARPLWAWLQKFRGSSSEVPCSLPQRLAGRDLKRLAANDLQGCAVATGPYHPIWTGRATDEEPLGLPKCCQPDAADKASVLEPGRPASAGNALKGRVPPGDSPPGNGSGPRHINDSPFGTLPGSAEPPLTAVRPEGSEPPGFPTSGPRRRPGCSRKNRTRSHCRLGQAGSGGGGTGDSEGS

The chains behind the UniProt entries cited, without tags or fusion partners. Where a name states a change or a piece, a line headed by the entry shows the natural chain unless it says otherwise. A line that says so, or that is headed by a name, gives the form on record, which may keep a tag or linker. Residues count along the entry.
UniProt P43146: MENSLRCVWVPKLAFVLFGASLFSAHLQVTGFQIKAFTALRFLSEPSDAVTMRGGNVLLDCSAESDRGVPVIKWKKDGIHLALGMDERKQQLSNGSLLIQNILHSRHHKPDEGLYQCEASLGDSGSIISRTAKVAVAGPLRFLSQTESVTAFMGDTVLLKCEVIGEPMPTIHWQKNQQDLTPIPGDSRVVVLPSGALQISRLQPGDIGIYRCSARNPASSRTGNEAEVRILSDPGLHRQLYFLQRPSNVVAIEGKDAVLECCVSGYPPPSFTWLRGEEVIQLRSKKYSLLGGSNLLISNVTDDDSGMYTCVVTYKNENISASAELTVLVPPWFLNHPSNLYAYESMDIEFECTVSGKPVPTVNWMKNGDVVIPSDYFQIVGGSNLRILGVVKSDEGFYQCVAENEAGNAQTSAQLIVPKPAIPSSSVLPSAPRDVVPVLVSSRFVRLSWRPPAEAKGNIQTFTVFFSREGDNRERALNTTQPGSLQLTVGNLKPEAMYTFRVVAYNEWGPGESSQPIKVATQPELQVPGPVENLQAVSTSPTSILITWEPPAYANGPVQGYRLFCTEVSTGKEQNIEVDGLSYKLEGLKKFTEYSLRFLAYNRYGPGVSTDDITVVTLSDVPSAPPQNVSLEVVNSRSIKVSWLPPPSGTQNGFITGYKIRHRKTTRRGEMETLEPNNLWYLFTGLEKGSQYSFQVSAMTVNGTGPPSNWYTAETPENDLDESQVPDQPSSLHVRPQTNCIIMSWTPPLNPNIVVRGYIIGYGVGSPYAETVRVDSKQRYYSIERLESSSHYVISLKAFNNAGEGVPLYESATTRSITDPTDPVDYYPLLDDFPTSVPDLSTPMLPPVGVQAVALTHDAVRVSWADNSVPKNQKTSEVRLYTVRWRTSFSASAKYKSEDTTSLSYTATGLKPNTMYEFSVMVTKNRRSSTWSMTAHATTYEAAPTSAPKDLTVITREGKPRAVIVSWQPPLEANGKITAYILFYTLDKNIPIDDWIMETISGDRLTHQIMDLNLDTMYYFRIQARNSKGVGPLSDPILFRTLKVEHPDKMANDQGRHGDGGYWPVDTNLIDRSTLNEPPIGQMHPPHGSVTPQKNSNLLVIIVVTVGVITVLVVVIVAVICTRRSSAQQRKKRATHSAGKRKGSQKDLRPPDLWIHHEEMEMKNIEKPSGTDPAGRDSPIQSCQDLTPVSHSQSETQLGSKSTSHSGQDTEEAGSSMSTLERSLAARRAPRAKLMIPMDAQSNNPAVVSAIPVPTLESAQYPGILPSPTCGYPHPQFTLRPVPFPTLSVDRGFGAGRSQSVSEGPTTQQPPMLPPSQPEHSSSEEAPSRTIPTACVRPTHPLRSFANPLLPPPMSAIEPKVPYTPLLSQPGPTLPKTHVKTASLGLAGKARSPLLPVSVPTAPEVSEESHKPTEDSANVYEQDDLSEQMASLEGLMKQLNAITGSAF
DCC (cDNA transfected into COS-7 cells for the AP binding assay): residues 26-1447 of P43146
Flag-DCC full-length (H26-I1442): residues 26-1442 of P43146
extracellular domain of human DCC (M1-N1097) with a C-terminal Fc tag: residues 26-1097 of P43146
UniProt Q9NTU7, residues 28-201: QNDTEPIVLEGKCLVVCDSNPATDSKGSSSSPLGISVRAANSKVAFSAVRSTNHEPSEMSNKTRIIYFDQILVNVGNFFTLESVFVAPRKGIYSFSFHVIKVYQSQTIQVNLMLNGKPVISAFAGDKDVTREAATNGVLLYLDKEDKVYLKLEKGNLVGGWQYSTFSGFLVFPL
UniProt O95185, residues 41-380: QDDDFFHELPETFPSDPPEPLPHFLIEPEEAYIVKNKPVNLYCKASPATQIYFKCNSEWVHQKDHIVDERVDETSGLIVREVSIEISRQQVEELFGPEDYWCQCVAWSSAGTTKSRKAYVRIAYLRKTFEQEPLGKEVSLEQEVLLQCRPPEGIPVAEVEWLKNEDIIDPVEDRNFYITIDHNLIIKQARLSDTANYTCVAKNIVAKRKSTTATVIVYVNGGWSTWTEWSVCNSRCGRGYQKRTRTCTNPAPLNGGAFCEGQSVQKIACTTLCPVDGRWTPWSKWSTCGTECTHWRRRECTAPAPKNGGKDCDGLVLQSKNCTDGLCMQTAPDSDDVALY
UniProt Q6UW01, residues 33-205: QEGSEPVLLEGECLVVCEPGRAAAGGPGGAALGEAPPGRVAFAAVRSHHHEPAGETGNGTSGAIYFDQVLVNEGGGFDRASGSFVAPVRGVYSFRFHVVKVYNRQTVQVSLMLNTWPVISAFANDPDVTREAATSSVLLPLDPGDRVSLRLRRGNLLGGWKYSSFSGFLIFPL
UniProt P23435, residues 22-193: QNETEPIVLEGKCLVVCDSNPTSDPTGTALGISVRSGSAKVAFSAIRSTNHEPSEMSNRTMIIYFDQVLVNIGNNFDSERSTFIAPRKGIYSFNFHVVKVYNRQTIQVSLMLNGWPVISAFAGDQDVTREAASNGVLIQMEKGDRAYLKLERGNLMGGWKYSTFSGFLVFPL
UniProt Q8IUK8, residues 52-224: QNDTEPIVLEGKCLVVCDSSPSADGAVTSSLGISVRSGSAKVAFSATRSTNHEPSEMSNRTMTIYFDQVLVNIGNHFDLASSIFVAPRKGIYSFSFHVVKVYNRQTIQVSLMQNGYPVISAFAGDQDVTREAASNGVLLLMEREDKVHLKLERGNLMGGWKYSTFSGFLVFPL

[3] = target: extracellular domain of human DCC (M1-N1097) with a C-terminal Fc tag (human) (UniProt P43146); experiment: SPR; Biacore 3000, 25°C, CM5 chip, DCC-Fc or Robo3-Fc amine-coupled; CBLN family members injected at 10 µg/ml for 3 min, 30 µl/min, HBS-P (0.01 M HEPES pH 7.4, 0.15 M NaCl, 0.005% P20); both purified
[4] = target: T2, extracellular region of Robo3 fused to Fc (UniProt Q96MS0); experiment: as above
T2 sequence: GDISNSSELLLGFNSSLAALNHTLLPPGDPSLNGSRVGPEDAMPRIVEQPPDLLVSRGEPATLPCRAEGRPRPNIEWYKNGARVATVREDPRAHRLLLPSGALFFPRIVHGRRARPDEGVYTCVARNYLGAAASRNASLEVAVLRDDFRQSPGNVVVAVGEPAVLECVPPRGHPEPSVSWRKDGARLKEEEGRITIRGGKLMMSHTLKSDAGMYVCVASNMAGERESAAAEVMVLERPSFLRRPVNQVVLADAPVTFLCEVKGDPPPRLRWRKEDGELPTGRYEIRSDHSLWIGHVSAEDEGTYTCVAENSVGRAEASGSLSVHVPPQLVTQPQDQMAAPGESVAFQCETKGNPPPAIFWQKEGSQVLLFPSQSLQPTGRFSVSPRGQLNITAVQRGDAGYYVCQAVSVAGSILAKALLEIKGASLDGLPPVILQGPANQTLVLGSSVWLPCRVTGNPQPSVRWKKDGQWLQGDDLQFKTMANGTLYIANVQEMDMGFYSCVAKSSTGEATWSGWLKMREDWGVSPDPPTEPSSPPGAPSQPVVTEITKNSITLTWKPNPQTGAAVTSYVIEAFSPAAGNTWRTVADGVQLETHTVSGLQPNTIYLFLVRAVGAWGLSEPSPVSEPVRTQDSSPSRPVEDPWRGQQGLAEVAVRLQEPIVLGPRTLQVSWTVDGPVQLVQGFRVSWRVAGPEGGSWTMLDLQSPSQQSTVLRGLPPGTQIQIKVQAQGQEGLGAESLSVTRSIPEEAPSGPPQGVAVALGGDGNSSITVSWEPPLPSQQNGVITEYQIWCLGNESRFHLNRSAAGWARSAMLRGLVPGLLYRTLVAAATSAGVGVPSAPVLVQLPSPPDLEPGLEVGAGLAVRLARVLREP

[5] = target: Flag-DCC full-length (H26-I1442) (human) (UniProt P43146); experiment: flow cytometry on cells; HEK293T cells transiently transfected with Flag-tagged DCC against non-transfected cells; proteins at 10 µg/ml for 30 min, PBS with 2% FBS, 4°C; detected with anti-human IgG or anti-gD and labeled secondary antibody; only the binder purified
[6] = target: Flag-DCC full-length (H26-I1442) (human) (UniProt P43146); experiment: radioligand binding; competition: fixed concentration of 125I CBLN4-Fc with increasing unlabeled gD-Netrin-1 on DCC expressing HEK293T cells; 2 h, room temperature; only the binder purified
[7] = target: Flag-DCC full-length (H26-I1442) (human) (UniProt P43146); experiment: radioligand binding; blocking: HEK293T cells expressing DCC or control cells pre-blocked with unlabeled gD-Netrin-1 (1 µM) or CBLN4-Fc (2 µM) for 1.5 h on ice, then 125I CBLN4-Fc (300 pM) or 125I gD-Netrin-1 (52 pM) for 1 h at 4°C; only the binder purified

| Substance | binding [3] | binding [4] | further results |
| --- | --- | --- | --- |
| CBLN4-AP (from UniProt Q9NTU7 28-201) (ligand) | – | – | binding [1]: binds; binding [2]: no binding (tested: 20 nM) |
| UNC5C-Fc (from UniProt O95185 41-380) (Fc fusion) | – | – | binding [5]: no binding (tested: 10 µg/ml) |
| full length CBLN3-Fc (from UniProt Q6UW01 33-205) (Fc fusion) | no binding (tested: 10 µg/ml) | no binding (tested: 10 µg/ml) | – |
| full length CBLN4 C-terminal His (from UniProt Q9NTU7 28-201) (ligand) | – | no binding (tested: 10 µg/ml) | – |
| human CBLN4 (M1-L201) with a C-terminal Fc tag (from UniProt Q9NTU7 28-201) (Fc fusion) | – | – | binding [6]: binds; binding [7]: binds; binding [5]: binds |

Second part, led by results:

| binding [3] | binding [4] | Substance | further results |
| --- | --- | --- | --- |
| no binding (tested: 10 µg/ml) | no binding (tested: 10 µg/ml) | Full-length N-terminally HA-tagged CBLN1 (from UniProt P23435 22-193) | – |
| no binding (tested: 10 µg/ml) | no binding (tested: 10 µg/ml) | Full-length N-terminally HA-tagged CBLN2 (from UniProt Q8IUK8 52-224) | – |
